# Results taken from PubChem BioAssay (Tox21).
# Values joined by “and” are separate entries in the source; they are usually repeats but may differ in a detail not shown here. Identical values can stand only once. The inconclusive results got no clear call from the source; some entries with a clear call stand among them for comparison. Entries that show only a call come without a potency. For some assays here: Where the call is inconclusive, the potency comes from a doubtful curve fit. Active and inactive are the calls of the source. Unless noted, calls follow the shape of the dose curve; as a rule, active = well fitted curve in the direction sought with a large enough effect in the repeat runs; inconclusive = weak or mixed curves; inactive = no such curve, though single readings can be large; an effect the other way counts as inactive or inconclusive.
# Experiments:
# [1] = molecular target: Androgen receptor (Homo sapiens) (UniProt P10275); assay: qHTS assay to identify small molecule antagonists of the androgen receptor (AR) signaling pathway (AID 743035; active = well fitted inhibition curve with a large enough effect in the signal ratio in the repeat runs, not every such curve was filed as active; inconclusive = weak or mixed curves, or effect the other way; inactive = no such curve, though single readings can be large or run the other way; the % refers to the signal ratio); conditions: HEK293 AR-UAS-bla, R1881-stimulated, beta-lactamase FRET, 16 h; activity change, negative = inhibition: at 58.5 µM (top of the series) unless noted
# Sequence of UniProt P10275 (P10275 whole entry, looked up): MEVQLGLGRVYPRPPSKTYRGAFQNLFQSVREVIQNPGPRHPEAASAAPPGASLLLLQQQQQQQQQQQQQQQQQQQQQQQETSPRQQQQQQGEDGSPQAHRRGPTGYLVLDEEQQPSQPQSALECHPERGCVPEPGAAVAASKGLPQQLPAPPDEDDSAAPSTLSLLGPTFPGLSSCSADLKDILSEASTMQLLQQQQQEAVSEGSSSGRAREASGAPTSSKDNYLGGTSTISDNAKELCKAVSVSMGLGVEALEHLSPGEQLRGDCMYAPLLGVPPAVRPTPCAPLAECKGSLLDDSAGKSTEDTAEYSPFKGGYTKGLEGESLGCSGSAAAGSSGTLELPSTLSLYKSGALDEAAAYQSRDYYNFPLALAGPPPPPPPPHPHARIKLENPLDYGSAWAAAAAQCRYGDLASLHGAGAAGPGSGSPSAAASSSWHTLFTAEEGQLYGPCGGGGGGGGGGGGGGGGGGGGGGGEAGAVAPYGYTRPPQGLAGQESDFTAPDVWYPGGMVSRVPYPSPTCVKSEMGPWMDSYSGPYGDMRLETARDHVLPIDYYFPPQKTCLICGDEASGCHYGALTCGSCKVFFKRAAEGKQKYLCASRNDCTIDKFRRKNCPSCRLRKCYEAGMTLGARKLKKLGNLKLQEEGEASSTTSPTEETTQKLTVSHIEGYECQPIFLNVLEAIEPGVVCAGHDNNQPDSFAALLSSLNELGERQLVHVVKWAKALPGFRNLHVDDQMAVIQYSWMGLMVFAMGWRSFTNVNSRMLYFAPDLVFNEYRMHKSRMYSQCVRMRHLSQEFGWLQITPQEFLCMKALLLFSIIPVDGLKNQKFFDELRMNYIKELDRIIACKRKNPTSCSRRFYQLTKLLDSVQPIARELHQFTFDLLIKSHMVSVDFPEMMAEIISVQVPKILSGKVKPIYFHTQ
# Summary of the method: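 Quantitative HTS of the Tox21 10K library used HEK293 AR-UAS-bla cells stimulated with R1881 alongside compound for 16 h at 37C, followed by beta-lactamase FRET detection (LiveBLAzer B/G, 2 h, RT).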
# [2] = qHTS assay to identify small molecule antagonists of the thyroid receptor (TR) signaling pathway - cell viability counter screen (AID 743064); conditions: GH3.TRE-Luc viability, CellTiter-Fluor, 24 h; activity change, negative = cytotoxic: at 70.3 µM (top of the series) unless noted; also: nearly all actives have a fitted effect of over 50% in size; also: potency is read from the fitted curve at half-maximal effect
# Summary of the method: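 GH3.TRE-Luc rat pituitary cells dosed after 4 hr plating, co-stimulated with T3 at 1 nM final, incubated 23.5 h at 37 C. Viability measured in the same wells by CellTiter-Fluor fluorescence after 30 min further at 37 C.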
# [3] = qHTS assay to identify aromatase inhibitors - cell viability counter screen (AID 743084); conditions: MCF-7 aro ERE viability, CellTiter-Fluor, 24 h; activity change, negative = cytotoxicity: at 70.3 µM (top of the series);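 also: cells stimulated with testosterone during compound exposure; nearly all actives have a fitted effect of over 55% in size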; also: potency is read from the fitted curve at half-maximal effect
# [4] = molecular target: Androgen receptor (Homo sapiens) (UniProt P10275); assay: qHTS assay to identify small molecule agonists of the androgen receptor (AR) signaling pathway (AID 743036; active = well fitted activation curve with a large enough effect in the signal ratio in the repeat runs, with a control signal flat, not every such curve was filed as active; inconclusive = weak or mixed curves, or effect the other way; inactive = no such curve, though single readings can be large or run the other way; the % refers to the signal ratio; also: potency is read from the fitted curve at half-maximal effect); conditions: HEK293 AR-UAS-bla GripTite, beta-lactamase FRET ratio, 16 h; activation: at 62.4 µM (top of the series) unless noted
# Summary of the method: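 AR-UAS-bla HEK293 cells, plated 4 h before dosing, were treated with compound for 16 h at 37C. beta-Lactamase reporter read after 2 h with LiveBLAzer B/G FRET substrate at room temperature.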
# [5] = molecular target: Androgen receptor (Homo sapiens) (UniProt P10275); assay: qHTS assay to identify small molecule antagonists of the androgen receptor (AR) signaling pathway using the MDA cell line (AID 743042; also: nearly all actives have a fitted effect of over 55% in size; also: potency is read from the fitted curve at half-maximal effect)
# Summary of the method: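 MDA-kb2 cells (human breast carcinoma, stably carrying an MMTV-luciferase reporter responsive to AR and GR) were plated at 3,000 cells/well and preincubated 5 hr at 37C, then given compound plus R1881 agonist for 16 h. ONE-Glo luminescence was read.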
# [6] = molecular target: Estrogen receptor (Homo sapiens) (UniProt P03372); assay: qHTS assay to identify small molecule agonists of the estrogen receptor alpha (ER-alpha) signaling pathway using the BG1 cell line (AID 743079); conditions: BG1Luc4E2 cells, ERE-luciferase agonist, 22 h; activation: at 70.3 µM (top of the series) unless noted; also: nearly all actives have a fitted effect of over 20% in size
# Sequence of UniProt P03372 (P03372 whole entry, looked up): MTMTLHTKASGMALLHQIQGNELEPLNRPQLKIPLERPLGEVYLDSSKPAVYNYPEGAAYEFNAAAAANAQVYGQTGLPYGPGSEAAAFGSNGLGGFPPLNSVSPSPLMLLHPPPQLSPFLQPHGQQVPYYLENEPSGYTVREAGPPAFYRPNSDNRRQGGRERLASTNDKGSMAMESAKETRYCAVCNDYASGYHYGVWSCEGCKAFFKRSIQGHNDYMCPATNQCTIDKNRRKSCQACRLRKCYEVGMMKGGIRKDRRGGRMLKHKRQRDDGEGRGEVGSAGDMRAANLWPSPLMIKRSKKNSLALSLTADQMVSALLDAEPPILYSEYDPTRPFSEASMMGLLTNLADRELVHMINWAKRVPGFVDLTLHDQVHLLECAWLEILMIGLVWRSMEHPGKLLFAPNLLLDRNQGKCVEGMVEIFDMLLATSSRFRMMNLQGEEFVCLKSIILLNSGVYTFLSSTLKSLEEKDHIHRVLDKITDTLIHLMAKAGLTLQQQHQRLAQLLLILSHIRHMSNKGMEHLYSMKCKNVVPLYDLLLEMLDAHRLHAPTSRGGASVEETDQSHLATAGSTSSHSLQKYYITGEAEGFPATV
# [7] = qHTS assay to identify small molecule antagonists of the estrogen receptor alpha (ER-alpha) signaling pathway using the BG1 cell line (AID 743080; calls by dose curve;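 also: BG1 cells stimulated with 17beta-estradiol alongside compound; nearly all actives have a fitted effect of over 25% in size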); conditions: BG1Luc4E2 ERE-luciferase antagonist mode, luminescence; activity change, negative = inhibition: at 70.3 µM (top of the series) unless noted
# Summary of the method: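 Quantitative HTS on the Tox21 10K library: BG1 cells with endogenous ER-alpha and ERE-luciferase reporter, 17beta-estradiol stimulation, 21.5 h compound exposure, luminescence endpoint with parallel fluorescence cytotoxicity counter-read.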
# [8] = qHTS assay to identify small molecule antagonists of the androgen receptor (AR) signaling pathway using the MDA cell line - cell viability counter screen (AID 743041; also: nearly all actives have a fitted effect of over 45% in size; also: potency is read from the fitted curve at half-maximal effect); conditions: MDA-kb2 viability, CellTiter-Fluor, 16 h, cells co-treated with R1881 androgen agonist; viability change, negative = cytotoxic: at 70.3 µM (top of the series) unless noted
# Summary of the method: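 qHTS viability read-out; MDA-kb2 AR-luc; R1881-stimulated; 16 h exposure at 37C, 0% CO2; CellTiter-Fluor, 30 min; fluorescence intensity.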
# [9] = qHTS assay to identify small molecule antagonists of the estrogen receptor alpha (ER-alpha) signaling pathway - cell viability counter screen (AID 743074; calls by dose curve;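 also: HEK293 cells carrying ER-alpha-UAS-bla reporter stimulated with 17beta-estradiol; nearly all actives have a fitted effect of over 45% in size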; also: potency is read from the fitted curve at half-maximal effect)
# [10] = qHTS assay to identify small molecule antagonists of the thyroid receptor (TR) signaling pathway (AID 743065); also: nearly all actives have a fitted effect of over 55% in size
# Summary of the method: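 GH3.TRE-Luc rat pituitary cells carrying two TR response elements driving luciferase were plated for 4 h, given compound plus 1 nM T3 (final), and incubated 23.5 h at 37 C. ONE-Glo luminescence measured reporter inhibition; CellTiter-Fluor fluorescence tracked cytotoxicity.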
# [11] = molecular target: Androgen receptor (Homo sapiens) (UniProt P10275); assay: qHTS assay to identify small molecule agonists of the androgen receptor (AR) signaling pathway using the MDA cell line (AID 743040; also: nearly all actives have a fitted effect of over 20% in size); conditions: MDA-kb2 AR-luc cells, MMTV luciferase, 16 h; activity change: at 70.3 µM (top of the series), hits give high values unless noted
# Summary of the method: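 Agonist activity is measured as luciferase luminescence in human MDA-kb2 cells whose MMTV reporter responds to both AR and GR. Compounds in DMSO incubate 16 h at 37C, 0% CO2, and ONE-Glo is read after 30 min.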
# [12] = tested on: thyroid hormone receptor (rat, GH3 cells); assay: qHTS assay to identify small molecule agonists of the thyroid receptor (TR) signaling pathway (AID 743066; calls by dose curve); conditions: GH3.TRE-Luc cells, TR agonist luciferase, 24 h; activation: at 83.9 µM (top of the series) unless noted
# [13] = qHTS assay to identify small molecule antagonists of the estrogen receptor alpha (ER-alpha) signaling pathway using the BG1 cell line - cell viability counter screen (AID 743081);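 also: compound given together with 17beta-estradiol as the ER stimulus; potency is read from the fitted curve at half-maximal effect; nearly all actives have a fitted effect of over 45% in size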
# Aromatase (Homo sapiens) = Aromatase (Homo sapiens) (UniProt P11511); assay: qHTS assay to identify aromatase inhibitors (AID 743083); also: nearly all actives have a fitted effect of over 55% in size
# Sequence of UniProt P11511 (P11511 whole entry, looked up): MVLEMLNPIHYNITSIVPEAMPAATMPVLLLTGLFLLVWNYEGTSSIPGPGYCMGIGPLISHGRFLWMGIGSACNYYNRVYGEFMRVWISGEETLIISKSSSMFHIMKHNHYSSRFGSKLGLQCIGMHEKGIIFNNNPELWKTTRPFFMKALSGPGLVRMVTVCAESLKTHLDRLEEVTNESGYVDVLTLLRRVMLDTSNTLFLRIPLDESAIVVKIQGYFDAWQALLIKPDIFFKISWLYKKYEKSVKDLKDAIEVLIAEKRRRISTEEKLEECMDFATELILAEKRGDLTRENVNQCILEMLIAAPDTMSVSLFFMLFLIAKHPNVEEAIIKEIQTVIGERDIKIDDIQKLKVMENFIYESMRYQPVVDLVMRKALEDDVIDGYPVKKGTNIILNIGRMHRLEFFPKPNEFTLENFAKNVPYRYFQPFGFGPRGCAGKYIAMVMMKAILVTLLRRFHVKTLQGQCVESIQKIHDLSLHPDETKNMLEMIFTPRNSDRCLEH
# [14] = molecular target: Estrogen receptor (Homo sapiens) (UniProt P03372); assay: qHTS assay to identify small molecule agonists of the estrogen receptor alpha (ER-alpha) signaling pathway (AID 743075; calls by dose curve;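 also: HEK293 GripTite cells with ER-alpha and UAS-driven beta-lactamase reporter; potency is read from the fitted curve at half-maximal effect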)
# Tags tell the direction and shape of the fitted curve or compound fluorescence and quenching.
structure (smiles),measurement,setting,value
Cc1onc(-c2c(Cl)cccc2Cl)c1C(=O)N[C@@H]1C(=O)N2[C@@H]1SC(C)(C)[C@@H]2C(=O)O,"activity change, negative = inhibition",[1],inconclusive: 1.16%
same,Potency,[2],inactive
same,Potency,[3],inactive
O=C(O)CCC(=O)c1ccc(-c2ccccc2)cc1,Potency,[4],"inconclusive: 1.62 µM [rising, partial curve, poor fit]"
same,Potency,[5],inactive
C1COCCO1,Potency,[1],inactive
same,Potency,[6],inactive
same,Potency,[7],inactive
Cc1cccc2cccnc12,Potency,[2],inactive
C=CC(=O)NC(C)C,Potency,[8],inactive
same,Potency,[9],inactive
CCCCCCC1CCCC(=O)O1 (centres undefined),Potency,[8],"inconclusive: 27.3 µM [rising, partial curve, poor fit]"
same,Potency,[9],inactive
O=[N+]([O-])c1ccc(F)c(Cl)c1,Potency,[2],inactive
CCCOCC(C)OCC(C)O (centres undefined),activation,[4],inconclusive: 25.9% [at 79.1 µM]
Cc1ccc(C=O)cc1C,Potency,[8],"inconclusive: 27.3 µM [rising, partial curve, poor fit]"
same,Potency,[2],inactive
same,Potency,[9],inactive
N[C@@H](COP(=O)(O)O)C(=O)O,Potency,[8],"inconclusive: 13.3 µM [rising, full curve]"
O=C(/C=C/c1ccc(O)c(O)c1)O[C@@H](C(=O)O)[C@@H](OC(=O)/C=C/c1ccc(O)c(O)c1)C(=O)O,Potency,[8],"inconclusive: 38.5 µM [cytotoxic, partial curve, poor fit]"
same,Potency,[10],inactive
C=CCOC(=O)COCCC(C)C,Potency,[8],inactive
same,Potency,[6],inactive
same,"activity change, negative = cytotoxicity",[3],inconclusive: 30.3%
CC(C)[C@@H]1CC[C@@H](C)C[C@H]1O,activity change,[11],"inconclusive: -0.41% [phenotype inactive] [at 95 µM, hits give high values]"
same,Potency,[5],"inconclusive: 0.0078 µM [inhibitor, full curve, poor fit]"
same,Potency,[2],"inconclusive: 6.94 µM [rising, single point]"
same,Potency,[10],inactive
same,Potency,[9],"inconclusive: 88.1 nM [cytotoxic, full curve, poor fit] and inconclusive: 21.9 µM [cytotoxic, single point]"
OCC(CO)n1cnc(-c2ccc(F)cc2)c1-c1ccnc(Oc2ccccc2)n1,Potency,[8],inactive
same,Potency,[2],inactive
same,Potency,[3],inactive
CC(C)(C)S,"viability change, negative = cytotoxic",[8],inconclusive: 31.1% [at 95 µM]
CO[C@@]12[C@H](COC(N)=O)C3=C(C(=O)C(C)=C(N)C3=O)N1C[C@@H]1N[C@@H]12,Potency,[8],"inconclusive: 29.8 µM [cytotoxic, partial curve, poor fit]"
same,activation,[12],inconclusive: -9.18% [phenotype inactive]
same,Potency,[9],"inconclusive: 2.68 µM [rising, full curve, poor fit]"
same,Potency,[13],"inconclusive: 29.8 µM [cytotoxic, single point]"
same,Potency,[3],"inconclusive: 16.8 µM [cytotoxic, partial curve, poor fit]"
CCN1C(=O)c2ccccc2C1Nc1ccc(OCCN2CCCCC2)cc1 (centres undefined),Potency,[4],inactive
same,Potency,[7],inactive
same,Potency,[13],"inconclusive: 1.88 µM [cytotoxic, partial curve, poor fit]"
O=C(O)c1ccccc1[N+](=O)[O-],Potency,[8],inactive
same,Potency,[3],inactive
Nc1ccc(N)c([N+](=O)[O-])c1,Potency,[8],"inconclusive: 34.4 µM [cytotoxic, partial curve]"
same,Potency,[10],inactive
same,Potency,[9],"inconclusive: 0.0055 µM [rising, full curve, poor fit]"
same,Potency,[13],"inconclusive: 43.3 µM [cytotoxic, partial curve, poor fit]"
CCN(CC)CCCC(C)Nc1c2ccc(Cl)cc2nc2ccc(OC)cc12 (centres undefined),Potency,[8],"inconclusive: 33.5 µM [cytotoxic, single point]"
same,Potency,[2],inconclusive: 33.5 µM
same,Potency,[13],"inconclusive: 37.6 µM [cytotoxic, partial curve, poor fit]"
same,Potency,Aromatase (Homo sapiens),inactive
O=[N+]([O-])c1c(Cl)cc(Cl)cc1Cl,Potency,[8],inactive
same,Potency,[2],inactive
O=c1[nH]cnc2ccccc12,Potency,[2],"inconclusive: 0.631 µM [rising, single point]"
C=CCOCC(O)CCl (centres undefined),Potency,[4],inactive
same,Potency,[12],inactive
CC(=O)N(CC(O)CO)c1c(I)c(C(=O)NCCO)c(I)c(C(=O)NCC(O)CO)c1I (centres undefined),Potency,[8],inactive
same,Potency,[9],"inconclusive: 12 µM [rising, full curve]"
O=C(CS(=O)Cc1ccco1)NC/C=C\COc1cc(CN2CCCCC2)ccn1 (centres undefined),Potency,[8],inactive
same,Potency,[2],inactive
OCCN(CCO)c1cccc(Cl)c1,Potency,[4],inactive
NCCCN1CCN(CCCN)CC1,Potency,[4],inactive
same,Potency,[2],inactive
CCCCCC,Potency,[2],inactive
CCC1CCC(CCC(=O)O)C1 (centres undefined),"viability change, negative = cytotoxic",[8],inconclusive: 4.58% [at 95 µM]
CCCC(=O)OC(=O)CCC,Potency,[8],inactive
same,"activity change, negative = cytotoxic",[2],inconclusive: 42.2% [at 95 µM]
same,Potency,[9],"inconclusive: 4.45 µM [rising, full curve, poor fit]"
CC1(C)CC(O)CC(C)(C)N1,Potency,[2],"inconclusive: 27.8 µM [rising, single point]"
CCC(=O)O,Potency,[8],"inconclusive: 9.44 µM [cytotoxic, partial curve]"
same,Potency,[2],"inconclusive: 15 µM [rising, partial curve, poor fit]"
same,Potency,[14],"inconclusive: 0.196 µM [falling, full curve]"
same,activation,[6],inconclusive: -10.7% [phenotype inactive] [at 95 µM]
same,Potency,[13],"inconclusive: 3.35 µM [rising, full curve]"
